6 variants from the supplement of paper PMC12217912 can be followed below.

B1: TEV protease; numbered along this chain (parent)
chain: MGESLFKGPRDYNPISSSICHLTNESDGHTTSLYGIGFGPFIITNKHLFRRNNGTLVVQSLHGVFKVKDTTTLQQHLVDGRDMIIIRMPKDFPPFPQKLKFREPQREERICLVTTNFQTKSMSSMVSDTSCTFPSGDGIFWKHWIQTKDGQCGSPLVSTRDGFIVGIHSASNFTNTNNYFTSVPKNFMELLTNQEAQQWVSGWRLNADSVLWGGHKVFMVKPEEPFQPVKEATQL

In this test the parent is B1. Nature of the test: raw area under fraction-flipped curve 0-4 h after induction (AUC4h, not background-subtracted), DNA-recorder readout of cleavage of the substrate (dimensionless); higher = more cleavage of the substrate by the protease variant. The note with it: temperature: 34 °C; time window: 0-4 h after rhamnose induction.

The other results are listed elsewhere or left out. Sequences were assembled here from the parent chain. Values near 0.05 are background.
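Further: Bxb1 expression induced with 0.2% (w/v) L-rhamnose at OD600 near 0.5, cultures sampled hourly, flipped fraction per protease–substrate barcode pair counted by paired-end Illumina sequencing.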

As to MGESLFKGPRDYNPISSSICHLTNESDGHTTSLYGIGFGPFIITNKHLFRRNNGTLVVQSLHGVFKVKDTTTLQQHLVDGRDMIIIRMPKDFPPFPQKLKFREPQREERICLVTTNFQTKSMSSMVSDTSATFPSGDGIFWKHWIQTKDGQCGSPLVSTRDGFIVGIHSASNFTNTNNYFTSVPKNFMELLTNQEAQQWVSGWRLNADSVLWGGHKVFMVKPEEPFQPVKEATQL [C131A], the “area with substrate ENCYFQS” value is 0.0629, the “area with substrate ENFYFQS” value amounted to 0.0647 and the “area with substrate ENSYFQS” value came out at 0.0678.
On to MGESLFKGPRDYNPISSSICHLTNESDGHTTSLYGIGFGPFIITNKHLFRRNNGTLVVQSLHGVFKVKDTTTLQQHLVDGRDMIIIRMPKDFPPFPQKLKFREPQREERICLVTTNFQTKSMSSMVSDTSCTFFSGDGIFWKHWIQTKDGQCGSPLVSTRDGFIVGIHSASNFTNTNNYFTSVPKNFMELLTNQEAQQWVSGWRLNADSVLWGGHKVFMVKPEEPFQPVKEATQL [P134F], for which the “area with substrate ENCYFQS” value came out at 0.0559, the “area with substrate ENDYFQS” value came to 0.0569, the “area with substrate ENEYFQS” value is 0.0355 and the “area with substrate ENFYFQS” value is 0.0517. For the same variant, the “area with substrate ENGYFQS” value is 0.0443, the “area with substrate ENHYFQS” value was 0.0787, the “area with substrate ENNYFQS” value stood at 0.0606 and the “area with substrate ENRYFQS” value was found to be 0.0688. The “area with substrate ENSYFQS” value turned out to be 0.072.
On to MGESLFKGPRDYNPISSSICHLTNESDGHTTSLYGIGFGPFIITNKHLFRRNNGTLVVQSLHGVFKVKDTTTLQQHLVDGRDMIIIRMPKDFPPFPQKLKFREPQREERICLVTTNFQTKSMSSMVSDTSCTFMSGDGIFWKHWIQTKDGQCGSPLVSTRDGFIVGIHSASNFTNTNNYFTSVPKNFMELLTNQEAQQWVSGWRLNADSVLWGGHKVFMVKPEEPFQPVKEATQL [P134M], for which the “area with substrate ENCYFQS” value was 0.036, the “area with substrate ENDYFQS” value was found to be 0.0802, the “area with substrate ENEYFQS” value came to 0.0637 and the “area with substrate ENFYFQS” value is 0.0813. The “area with substrate ENHYFQS” value is 0.0565, the “area with substrate ENIYFQS” value is 0.0974, the “area with substrate ENMYFQS” value is 0.0291 and the “area with substrate ENQYFQS” value worked out at 0.0645. The “area with substrate ENRYFQS” value is 0.0582, the “area with substrate ENSYFQS” value is 0.0588, the “area with substrate ENTYFQS” value came to 0.0497 and the “area with substrate ENVYFQS” value came out at 0.065.
As for MGESLFKGPRDYNPISSSICHLTNESDGHTTSLYGIGFGPFIITNKHLFRRNNGTLVVQSLHGVFKVKDTTTLQQHLVDGRDMIIIRMPKDFPPFPQKLKFREPQREERICLVTTNFQTKSMSSMVSDTSCTFASGDGIFWKHWIQTKDGQCGSPLVSTRDGFIVGIHSASNFTNTNNYFTSVPKNFMELLTNQEAQQWVSGWRLNADSVLWGGHKVFMVKPEEPFQPVKEATQL [P134A], the “area with substrate ENCYFQS” value came to 0.0676, the “area with substrate ENEYFQS” value is 0.0666, the “area with substrate ENGYFQS” value was 0.0393 and the “area with substrate ENIYFQS” value turned out to be 0.102. Besides, the “area with substrate ENNYFQS” value is 0.0676, the “area with substrate ENSYFQS” value was 0.0593 and the “area with substrate ENVYFQS” value turned out to be 0.0777.
With MGESLFKGPRDYNPISSSICHLTNESDGHTTSLYGIGFGPFIITNKHLFRRNNGTLVVQSLHGVFKVKDTTTLQQHLVDGRDMIIIRMPKDFPPFPQKLKFREPQREERICLVTTNFQTKSMSSMVSDTSCTFPSGDGIFLKHWIQTKDGQCGSPLVSTRDGFIVGIHSASNFTNTNNYFTSVPKNFMELLTNQEAQQWVSGWRLNADSVLWGGHKVFMVKPEEPFQPVKEATQL [W141L], the “area with substrate ENCYFQS” value stood at 0.0563, the “area with substrate ENDYFQS” value turned out to be 0.0828, the “area with substrate ENEYFQS” value is 0.0559 and the “area with substrate ENHYFQS” value is 0.055. Moreover, the “area with substrate ENKYFQS” value is 0.0501, the “area with substrate ENQYFQS” value amounted to 0.0559, the “area with substrate ENRYFQS” value is 0.05 and the “area with substrate ENTYFQS” value stood at 0.0538.
With MGESLFKGPRDYNPISSSICHLTNESDGHTTSLYGIGFGPFIITNKHLFRRNNGTLVVQSLHGVFKVKDTTTLQQHLVDGRDMIIIRMPKDFPPFPQKLKFREPQREERICLVTTNFQTKSMSSMVSDTSCTFPSGDGIFDKHWIQTKDGQCGSPLVSTRDGFIVGIHSASNFTNTNNYFTSVPKNFMELLTNQEAQQWVSGWRLNADSVLWGGHKVFMVKPEEPFQPVKEATQL [W141D], the “area with substrate ENCYFQS” value is 0.0482, the “area with substrate ENDYFQS” value was 0.049, the “area with substrate ENEYFQS” value came to 0.0548 and the “area with substrate ENGYFQS” value was 0.0325. In addition, the “area with substrate ENNYFQS” value worked out at 0.058, the “area with substrate ENQYFQS” value was found to be 0.0345, the “area with substrate ENSYFQS” value is 0.0608 and the “area with substrate ENYYFQS” value turned out to be 0.0359.
